Test results taken from ChEMBL document CHEMBL4888484, “Replenishing the malaria drug discovery pipeline: Screening and hit evaluation of the MMV Hit Generation Library 1 (HGL1) against asexual blood stage Plasmodium falciparum ,using a nano luciferase reporter read-out” (2022).
About 540 (0.36%) of roughly 150,000 compounds showed an effect of 50% or more. The list shows a part of the results.

Tested on: Plasmodium falciparum
Assay: Primary screen in NF54 nanoGlo assay, in single point, at 2uM, 72h; a lower Z score goes with more inhibition
Assay type: functional, Erythrocyte
Details: timepoint 72 hour

Point of comparison: `COc1ccc(-c2cc(C(=O)N[C@H](C(=O)N3CCCC3)C(C)C)no2)c(OC)c1`, “% Inhibition” value -9%. Against it:
- Cn1cccc1C(=O)N1CCC(F)(C(=O)NCC2CC2)CC1 — higher, -7%
- COc1ccc([C@H](CO)N(C)C(=O)NC(C)C)cc1 — lower, -10%
- CC(=O)Nc1ccc2nc(CN(C)CC3(N4CCOCC4)CCCCC3)ccc2c1 — the same, -9%
- Cc1cc(C(=O)N2CC3(C[C@@H](c4nc(-c5ccccc5)no4)N(C)C3)C2)n(C)n1 — lower, -19%
- COc1ccc(-n2nc(C)c3sc(N4CCN(C(=O)c5ccc(C)c(C)c5)CC4)nc32)cc1 — lower, -15%
- Cc1ccncc1CC(=O)N(Cc1ccccc1)[C@H]1CC(C)(C)OC1(C)C — higher, 13%
- O=C(NCCc1ccccc1)[C@@H]1CCN1S(=O)(=O)c1ccc2c(c1)OCCO2 — lower, -34%
- COC(=O)[C@@H]1CCCCN1Cc1cccc2nsnc12 — lower, -14%
- C[C@H](Oc1ccccc1-c1cc(C2CCC2)nc(N)c1C#N)C(=O)O — lower, -28%
- O=C([C@H]1CCCN(S(=O)(=O)c2cccc3nonc23)C1)N1CCc2ccccc2C1 — higher, -3%
- CCc1nn(C)cc1NCc1cnnn1C — higher, -8%
- Cc1nc(CCNC(=O)C(C)(C)NC(=O)Nc2ccccc2)cs1 — higher, -6%
- Nc1nonc1C(=O)NCCc1ccccc1 — higher, -8%
- COCC1(CNC(=O)[C@H](C)c2cnn(C)c2)CCCCC1 — higher, 0%
- O=C1CN(c2ccc(NC(=O)[C@@H]3CCCc4c(O)cccc43)cn2)CCN1 — higher, 10%
- COCCN(CCN(C(C)=O)c1ccc(F)cc1)C(C)=O — lower, -12%
- O=S(=O)(c1c[nH]c2cccc(F)c12)N1CC(C2CC2)C1C1CC1 (stereo not drawn) — higher, 2%
- CCc1nn(C)c(NC(=O)[C@@H]2CCCC[C@@H]2C(=O)N2CCCC2)c1C — higher, -4%
- c1coc(-c2nc(CNC[C@H]3CN(C4CC4)CCO3)cs2)c1 — higher, -5%
- Cc1cnc(C[C@H]2CCN(C(=O)NC3CCCCC3)C2)n1C1CC1 — lower, -14%
- O=C(Nc1ccc(C2OC(=O)N(Cc3ccccc3)C2C(=O)NCC2CCCO2)cc1)c1ccco1 (stereo not drawn) — lower, -11%
- CC1CC(C)CN(c2ccc(S(=O)(=O)N3CCOCC3)cc2)C1 (stereo not drawn) — lower, -14%
- Cc1ccc(NC(=O)NC2CCOCC2)c(C)c1 — higher, 0%
- O=C(CCc1ccco1)Nc1cn[nH]c1 — lower, -11%
- O=C(NCC1(Cn2cccn2)CC1)c1c(O)cccc1O — lower, -15%
- CC(C)c1ccc(NC(=O)CCN2CCC(O)(c3ccccn3)CC2)cc1 — higher, -3%
- Cc1nccn1[C@H]1[C@@H]2OC[C@@H](O2)[C@@H](NCc2ccncc2F)[C@@H]1O — higher, 34%
- Cc1csc(CNC2CCN(c3ccccc3Cl)CC2)n1 — higher, 4%
- CCCCNC(=O)[C@@H]1CCCC[C@@H]1C(=O)NCc1cc(O)nc(C)n1 — higher, 8%
- C/C(=C\c1ccccc1)CN1CC[C@@]2(CCCNC2)C1 — higher, -5%
- Cc1csc(Cn2ccnc2-c2cncc(Br)c2)n1 — higher, -4%
- CCCC[C@H](CC)C(=O)Nc1nnc(C(CC)CC)s1 — higher, -2%
- C[C@](O)(CNC(=O)CC1CC(c2ccccc2)C1)CN1CCOCC1 (stereo partly drawn) — higher, -2%
- O=C(NCCOc1ccccc1)Nc1ccc(NC(=O)c2ccco2)cc1 — higher, 8%
- O=C(CCN1C[C@@H](O)[C@@H](O)[C@@H](O)C1)Nc1cc(Cl)ccc1Cl — higher, -5%
- CC(C)COCCCNC(=O)Nc1ccn(CCCn2ccnc2)n1 — higher, 1%
- COc1cccc(Cn2ncnc2-c2cn([C@H]3CC[C@@H](N)CC3)nn2)c1 — lower, -16%
- CC(C)Oc1ccc(CN2CC[C@@H]2C)cc1CO — higher, 6%
- COc1nccc(N2CCC3(CC2)CC(=O)N(CC=C(C)C)C3)c1C#N — higher, 5%
- CN(C)C(=O)CO[C@H]1COCC[C@@H]1NC(=O)c1c(F)cccc1F — higher, 4%
- CCOc1cnc(-c2ccc(F)cc2)[nH]1 — lower, -23%
- N#Cc1cnn2c(NC3CCCCC3)c(-c3cccs3)[nH]c12 — higher, -6%
- C[C@H](C(=O)NS(=O)(=O)c1ccsc1)c1ccccc1 — higher, -6%
- COc1ccc(N2CCN(C(=O)c3cc(=O)c(OCc4ccc(Cl)cc4)c[nH]3)CC2)cc1 — higher, 3%
- O=C1CC(C2CCCCN2Cc2c(F)cccc2F)CN1 (stereo not drawn) — higher, 13%
- CCC(=O)N1CCN(C(=O)c2ccc(Cl)cc2)[C@H]2CS(=O)(=O)C[C@H]21 — higher, -5%
- Cc1ccc2[nH]c(CNCC(C)(C)CN3CCCC3)nc2c1 — higher, -8%
- C[C@H](NC(=O)c1ccc(Br)cn1)C(N)=O — higher, -1%
- OC[C@H]1CCN(Cc2cnc(NCc3ccccc3)nc2)C[C@@H]1O — lower, -11%
- CCc1onc(C)c1NC(=O)NC[C@H]1CN(C)C[C@@H]1c1ccccc1 — lower, -23%
- Cc1nc(C(C)C)nc(C)c1OCc1nc(-c2cccs2)no1 — higher, 10%
- Cc1cc(=O)[nH]c(CCNS(=O)(=O)N(C)C(C)C)n1 — higher, 2%
- CC(C)Cn1nnc2ccc(NC(=O)CCCc3ccccc3)cc2c1=O — higher, 22%

Point of comparison: `CC(=O)Nc1ccc2nc(CN(C)CC3(N4CCOCC4)CCCCC3)ccc2c1`, Z score 1.71. Against it:
- Cn1cccc1C(=O)N1CCC(F)(C(=O)NCC2CC2)CC1 — lower, 0.89
- COc1ccc([C@H](CO)N(C)C(=O)NC(C)C)cc1 — lower, 1.62
- Cc1cc(C(=O)N2CC3(C[C@@H](c4nc(-c5ccccc5)no4)N(C)C3)C2)n(C)n1 — higher, 2.26
- COc1ccc(-n2nc(C)c3sc(N4CCN(C(=O)c5ccc(C)c(C)c5)CC4)nc32)cc1 — lower, 1.65
- Cc1ccncc1CC(=O)N(Cc1ccccc1)[C@H]1CC(C)(C)OC1(C)C — lower, -1.48
- O=C(NCCc1ccccc1)[C@@H]1CCN1S(=O)(=O)c1ccc2c(c1)OCCO2 — higher, 3.99
- COC(=O)[C@@H]1CCCCN1Cc1cccc2nsnc12 — lower, 1.23
- C[C@H](Oc1ccccc1-c1cc(C2CCC2)nc(N)c1C#N)C(=O)O — higher, 3.42
- O=C([C@H]1CCCN(S(=O)(=O)c2cccc3nonc23)C1)N1CCc2ccccc2C1 — lower, 0.52
- CCc1nn(C)cc1NCc1cnnn1C — lower, 1.08
- Cc1nc(CCNC(=O)C(C)(C)NC(=O)Nc2ccccc2)cs1 — lower, 1
- Nc1nonc1C(=O)NCCc1ccccc1 — lower, 1.06
- COCC1(CNC(=O)[C@H](C)c2cnn(C)c2)CCCCC1 — lower, -0.01
- O=C1CN(c2ccc(NC(=O)[C@@H]3CCCc4c(O)cccc43)cn2)CCN1 — lower, -1.02
- COCCN(CCN(C(C)=O)c1ccc(F)cc1)C(C)=O — lower, 1.14
- O=S(=O)(c1c[nH]c2cccc(F)c12)N1CC(C2CC2)C1C1CC1 (stereo not drawn) — lower, -0.46
- CCc1nn(C)c(NC(=O)[C@@H]2CCCC[C@@H]2C(=O)N2CCCC2)c1C — lower, 0.81
- c1coc(-c2nc(CNC[C@H]3CN(C4CC4)CCO3)cs2)c1 — lower, 0.66
- Cc1cnc(C[C@H]2CCN(C(=O)NC3CCCCC3)C2)n1C1CC1 — higher, 1.76
- O=C(Nc1ccc(C2OC(=O)N(Cc3ccccc3)C2C(=O)NCC2CCCO2)cc1)c1ccco1 (stereo not drawn) — lower, 1.57
- CC1CC(C)CN(c2ccc(S(=O)(=O)N3CCOCC3)cc2)C1 (stereo not drawn) — higher, 1.77
- Cc1ccc(NC(=O)NC2CCOCC2)c(C)c1 — lower, -0.08
- O=C(CCc1ccco1)Nc1cn[nH]c1 — lower, 1.05
- O=C(NCC1(Cn2cccn2)CC1)c1c(O)cccc1O — higher, 2.76
- CC(C)c1ccc(NC(=O)CCN2CCC(O)(c3ccccn3)CC2)cc1 — lower, 0.55
- Cc1nccn1[C@H]1[C@@H]2OC[C@@H](O2)[C@@H](NCc2ccncc2F)[C@@H]1O — lower, -3.88
- Cc1csc(CNC2CCN(c3ccccc3Cl)CC2)n1 — lower, -0.66
- CCCCNC(=O)[C@@H]1CCCC[C@@H]1C(=O)NCc1cc(O)nc(C)n1 — lower, -0.99
- C/C(=C\c1ccccc1)CN1CC[C@@]2(CCCNC2)C1 — lower, 0.88
- Cc1csc(Cn2ccnc2-c2cncc(Br)c2)n1 — lower, 0.78
- CCCC[C@H](CC)C(=O)Nc1nnc(C(CC)CC)s1 — lower, 0.31
- C[C@](O)(CNC(=O)CC1CC(c2ccccc2)C1)CN1CCOCC1 (stereo partly drawn) — lower, 0.24
- O=C(NCCOc1ccccc1)Nc1ccc(NC(=O)c2ccco2)cc1 — lower, -0.98
- O=C(CCN1C[C@@H](O)[C@@H](O)[C@@H](O)C1)Nc1cc(Cl)ccc1Cl — lower, 0.6
- CC(C)COCCCNC(=O)Nc1ccn(CCCn2ccnc2)n1 — lower, -0.08
- COc1cccc(Cn2ncnc2-c2cn([C@H]3CC[C@@H](N)CC3)nn2)c1 — higher, 2.51
- COc1ccc(-c2cc(C(=O)N[C@H](C(=O)N3CCCC3)C(C)C)no2)c(OC)c1 — lower, 1.11
- CC(C)Oc1ccc(CN2CC[C@@H]2C)cc1CO — lower, -0.56
- COc1nccc(N2CCC3(CC2)CC(=O)N(CC=C(C)C)C3)c1C#N — lower, -0.74
- CN(C)C(=O)CO[C@H]1COCC[C@@H]1NC(=O)c1c(F)cccc1F — lower, -0.63
- CCOc1cnc(-c2ccc(F)cc2)[nH]1 — higher, 2.71
- N#Cc1cnn2c(NC3CCCCC3)c(-c3cccs3)[nH]c12 — lower, 0.98
- C[C@H](C(=O)NS(=O)(=O)c1ccsc1)c1ccccc1 — lower, 1.03
- COc1ccc(N2CCN(C(=O)c3cc(=O)c(OCc4ccc(Cl)cc4)c[nH]3)CC2)cc1 — lower, -0.43
- O=C1CC(C2CCCCN2Cc2c(F)cccc2F)CN1 (stereo not drawn) — lower, -1.52
- CCC(=O)N1CCN(C(=O)c2ccc(Cl)cc2)[C@H]2CS(=O)(=O)C[C@H]21 — lower, 0.92
- Cc1ccc2[nH]c(CNCC(C)(C)CN3CCCC3)nc2c1 — lower, 0.67
- C[C@H](NC(=O)c1ccc(Br)cn1)C(N)=O — lower, 0.09
- OC[C@H]1CCN(Cc2cnc(NCc3ccccc3)nc2)C[C@@H]1O — lower, 1.36
- CCc1onc(C)c1NC(=O)NC[C@H]1CN(C)C[C@@H]1c1ccccc1 — higher, 2.88
- Cc1nc(C(C)C)nc(C)c1OCc1nc(-c2cccs2)no1 — lower, -1.9
- Cc1cc(=O)[nH]c(CCNS(=O)(=O)N(C)C(C)C)n1 — lower, -0.22
- CC(C)Cn1nnc2ccc(NC(=O)CCCc3ccccc3)cc2c1=O — lower, -3.57
